Laboratory results published in the supplement of paper PMC7826260.
The list shows a part of the results. Each Rep nickase domain was tested in vitro on the same pool of single strands (1 h at 37 °C, 3 µM enzyme); the outer parts of the 90-letter strands are left off. Uncut reads are compared with the no-enzyme pool on a log2 scale; the lower, the more was cut; hits are not called. Because reads are shares of a total, they shift together, so uncut sequences can rise above 0 when many others are cut.

Assays:
Test in all cases: uncleaved DNA left, log2 of reads against the no-enzyme library (log2 ratio); higher = less cleavage (more negative = more Rep cleavage of the k-mer); sequences stand for … in CTCGTCCG…ACCGGAGA
[1] = system: T1, Rep nickase domain of Muscovy duck circovirus
T1 sequence (residues 1-111 of Rep, tag left off): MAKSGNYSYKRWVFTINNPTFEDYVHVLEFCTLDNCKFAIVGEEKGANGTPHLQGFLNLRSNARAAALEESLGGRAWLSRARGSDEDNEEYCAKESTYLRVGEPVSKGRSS
Method: (§1)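 A pool of 90-nt single-stranded DNAs with seven random bases just before the constant AC of the nick site (name = the seven bases) was cut by 3 µM recombinant His6-SUMO-tagged Rep nickase domain (300 nM DNA, 50 mM HEPES pH 8.0, 50 mM NaCl, 1 mM MnCl2, 1 h, 37 °C, three replicates). Uncut DNA was amplified and sequenced.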

[2] = system: T2, Rep nickase domain of banana bunchy top virus
T2 sequence (residues 1-94 of Rep, tag left off): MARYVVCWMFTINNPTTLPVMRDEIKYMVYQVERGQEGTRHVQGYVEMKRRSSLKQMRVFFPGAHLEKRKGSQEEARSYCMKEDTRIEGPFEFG
Method: as §1

[3] = system: T3, Rep nickase domain of cabbage leaf curl virus
T3 sequence (residues 1-116 of Rep, tag left off): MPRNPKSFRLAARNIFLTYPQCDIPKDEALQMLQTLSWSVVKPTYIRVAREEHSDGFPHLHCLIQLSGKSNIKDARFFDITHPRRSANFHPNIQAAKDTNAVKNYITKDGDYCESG
Method: as §1

[4] = system: T4, Rep nickase domain of chickpea chlorotic dwarf virus
T4 sequence (residues 1-124 of Rep, tag left off): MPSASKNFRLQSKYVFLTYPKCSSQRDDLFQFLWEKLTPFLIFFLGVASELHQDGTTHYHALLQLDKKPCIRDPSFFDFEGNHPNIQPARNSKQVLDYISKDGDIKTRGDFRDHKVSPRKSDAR
Method: as §1

[5] = system: T5, Rep nickase domain of faba bean necrotic yellows virus
T5 sequence (residues 1-98 of Rep, tag left off): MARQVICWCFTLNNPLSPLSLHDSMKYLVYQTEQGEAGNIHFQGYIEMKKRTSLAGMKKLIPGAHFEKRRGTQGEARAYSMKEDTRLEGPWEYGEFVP
Method: as §1

[6] = system: T6, Rep nickase domain of maize striate mosaic virus
T6 sequence (residues 1-117 of Rep, tag left off): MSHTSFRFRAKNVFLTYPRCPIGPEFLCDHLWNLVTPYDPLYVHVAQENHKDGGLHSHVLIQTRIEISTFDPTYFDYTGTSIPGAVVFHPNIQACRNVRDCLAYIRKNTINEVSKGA
Method: as §1

[7] = system: T7, Rep nickase domain of porcine circovirus 2
T7 sequence (residues 2-116 of Rep, tag left off): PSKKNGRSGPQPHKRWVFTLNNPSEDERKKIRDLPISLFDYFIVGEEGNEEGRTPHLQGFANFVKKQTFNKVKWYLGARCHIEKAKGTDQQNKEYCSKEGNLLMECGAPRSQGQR
Method: as §1

[8] = system: T8, Rep nickase domain of tomato golden mosaic virus
T8 sequence (residues 1-124 of Rep, tag left off): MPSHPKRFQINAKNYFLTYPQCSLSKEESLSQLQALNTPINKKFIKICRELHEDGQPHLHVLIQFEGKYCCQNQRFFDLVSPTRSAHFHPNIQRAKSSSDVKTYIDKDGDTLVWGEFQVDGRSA
Method: as §1

[9] = system: T9, Rep nickase domain of tomato yellow leaf curl virus
T9 sequence (residues 1-136 of Rep, tag left off): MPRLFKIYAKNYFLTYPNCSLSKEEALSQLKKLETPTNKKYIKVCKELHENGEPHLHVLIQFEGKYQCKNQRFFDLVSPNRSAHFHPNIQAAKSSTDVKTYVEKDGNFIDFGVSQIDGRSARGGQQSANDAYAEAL
Method: as §1

[10] = system: T10, Rep nickase domain of wheat dwarf virus
T10 sequence (residues 1-137 of Rep, tag left off): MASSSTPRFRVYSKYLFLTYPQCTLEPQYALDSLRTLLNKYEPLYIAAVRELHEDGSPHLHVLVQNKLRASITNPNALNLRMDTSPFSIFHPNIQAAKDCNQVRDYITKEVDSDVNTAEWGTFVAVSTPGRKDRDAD
Method: as §1

Sequence | uncleaved DNA left (log2) [1] | uncleaved DNA left (log2) [2] | uncleaved DNA left (log2) [3] | uncleaved DNA left (log2) [4] | uncleaved DNA left (log2) [5] | uncleaved DNA left (log2) [6] | uncleaved DNA left (log2) [7] | uncleaved DNA left (log2) [8] | uncleaved DNA left (log2) [9] | uncleaved DNA left (log2) [10]
AGTAGTG | 0.0381 | 0.0367 | -0.261 | -0.169 | 0.0251 | -0.573 | 0.218 | 0.171 | 0.138 | 0.0233
CGTTCGA | 0.00556 | -0.0888 | -0.442 | -0.601 | -0.0403 | -0.786 | 0.101 | 0.0143 | -0.0263 | -0.0915
TTGGTTT | 0.0584 | -0.0493 | 0.186 | -0.845 | -0.0609 | 0.468 | -0.0164 | -0.0152 | -0.0172 | -0.0111
GGAGCTT | -0.0218 | -0.00159 | 0.701 | 1.58 | -0.0236 | 2 | 0.075 | -0.0643 | -0.104 | 0.145
CATTCTG | -0.0531 | 0.0274 | -0.481 | -0.381 | -0.136 | -0.879 | 0.046 | – | -0.0181 | 0.0357
GGTATGT | 0.0147 | 0.0594 | 0.586 | 1.27 | 0.00771 | 1.83 | 0.0588 | – | 0.156 | 0.0885
ATTGGGA | -0.0617 | 0.0883 | -0.306 | -0.287 | 0.129 | -0.797 | 0.0372 | – | 0.0797 | -0.00347
GGCCCCA | -0.0739 | 0.1 | 0.468 | 0.969 | -0.0852 | 1.66 | -0.00643 | – | 0.0656 | -0.0231
AGTGACG | 0.0369 | -0.0284 | -0.0726 | 0.552 | 0.0559 | 1.37 | 0.155 | – | -0.0635 | 0.0382
CGCCGCT | 0.0957 | 0.00859 | -0.19 | -0.625 | -0.12 | -0.433 | 0.0422 | – | 0.0192 | 0.0487
CAACTGA | 0.0258 | -0.0487 | -0.0426 | 0.268 | 0.0278 | 0.939 | 0.0331 | – | 0.0431 | -0.0255
GTCTCAC | 0.07 | 0.17 | 0.397 | 0.873 | 0.128 | 1.74 | 0.214 | – | 0.192 | 0.205
TCTTGAC | 0.0148 | -0.0154 | 0.087 | -2.09 | -0.00641 | -0.161 | 0.0278 | – | -0.0314 | -0.162
GCGCCCA | -0.0168 | -0.0481 | 0.0163 | -0.0529 | -0.152 | 0.173 | -0.196 | – | 0.0336 | -0.0481
GCCGGCT | -0.0879 | -0.0355 | 0.0693 | 0.179 | 0.0434 | -0.0591 | -0.00813 | – | -0.114 | -0.0233
TTTGGGT | -0.0622 | -0.109 | -0.117 | 0.102 | -0.138 | -0.122 | -0.000792 | – | -0.115 | -0.108
AGAGAAG | 0.107 | 0.17 | -0.295 | -0.166 | 0.202 | -0.689 | 0.244 | – | 0.118 | 0.123
ACTTAAG | 0.00121 | 0.0958 | -0.912 | -0.0587 | -0.0476 | -0.949 | 0.22 | – | 0.125 | -0.0389
CGTCCAA | -0.0709 | -0.0465 | 0.0268 | -0.0604 | -0.141 | -0.384 | -0.0496 | – | -0.07 | 0.0143
TAAGTAC | -0.0508 | 0.0123 | -0.142 | -1.26 | -0.00755 | -0.554 | 0.036 | – | 0.0575 | -0.0428
TATCGTG | 0.0254 | 0.0759 | -0.558 | -0.737 | 0.145 | -1.06 | 0.191 | – | 0.133 | 0.0702
GCTGATA | 0.151 | 0.138 | 0.08 | 0.267 | 0.139 | 0.95 | 0.126 | – | 0.21 | 0.103
GGATGTA | 0.0963 | 0.0638 | 0.62 | 1.27 | 0.0229 | 1.93 | 0.255 | – | 0.162 | 0.162
TCACGCG | -0.126 | -0.0914 | -0.756 | 0.654 | -0.0778 | -0.72 | -0.0211 | – | -0.0728 | -0.106
GCTGTTG | 0.0538 | -0.15 | -0.258 | -0.114 | 0.00141 | -0.851 | 0.13 | – | -0.0594 | -0.131
GTTCACC | -0.108 | 0.00448 | 0.254 | 0.669 | -0.0843 | 1.49 | -0.0898 | – | -0.0762 | 0.0362
ACTGTCT | -0.0272 | -0.0691 | -0.232 | -1.08 | -0.046 | -0.196 | -0.329 | – | -0.0768 | -0.0425
GCGATGA | 0.0414 | -0.104 | 0.0379 | 0.537 | -0.0629 | 1.19 | 0.0226 | – | -0.0611 | 0.042
AAACCTC | 0.0709 | 0.0636 | 0.117 | -0.32 | 0.112 | 0.394 | -0.209 | – | 0.087 | 0.0308
CTGCATG | 0.117 | -0.0268 | -0.661 | -0.53 | -0.0409 | -1.11 | 0.135 | – | -0.00605 | -0.0848
